Reference: PubChem BioAssay AID504339 (National Center for Advancing Translational Sciences (NCATS), 2011)
About 17,000 (4.4%) of roughly 390,000 compounds were called active. The inconclusive results got no clear call from the source; some entries with a clear call stand among them for comparison. Calls come from the whole dose curve; as a rule, active = well fitted inhibition curve with a large enough effect; inconclusive = small, poorly fitted or top-dose-only effect; inactive = no such curve, though single readings can be large or run the other way. Where the call is inconclusive, the potency comes from a doubtful curve fit.

Biological target: Lysine-specific demethylase 4A (Homo sapiens) (UniProt O75164)
Assay: qHTS Assay for Inhibitors of JMJD2A-Tudor Domain; note: nearly all actives have a fitted effect of over 50% in size
Conditions: AlphaScreen JMJD2A-Tudor / H3K4me3 peptide binding; activity change, negative = inhibition: at 114 µM (top of the series)
% is set by controls: 0 for no effect and ±100 for the full control effect; potency is the fitted concentration of half-maximal effect; tags give direction and shape of the fitted curve.

Chain of UniProt O75164 (O75164 whole entry, looked up, the tested form may be a part): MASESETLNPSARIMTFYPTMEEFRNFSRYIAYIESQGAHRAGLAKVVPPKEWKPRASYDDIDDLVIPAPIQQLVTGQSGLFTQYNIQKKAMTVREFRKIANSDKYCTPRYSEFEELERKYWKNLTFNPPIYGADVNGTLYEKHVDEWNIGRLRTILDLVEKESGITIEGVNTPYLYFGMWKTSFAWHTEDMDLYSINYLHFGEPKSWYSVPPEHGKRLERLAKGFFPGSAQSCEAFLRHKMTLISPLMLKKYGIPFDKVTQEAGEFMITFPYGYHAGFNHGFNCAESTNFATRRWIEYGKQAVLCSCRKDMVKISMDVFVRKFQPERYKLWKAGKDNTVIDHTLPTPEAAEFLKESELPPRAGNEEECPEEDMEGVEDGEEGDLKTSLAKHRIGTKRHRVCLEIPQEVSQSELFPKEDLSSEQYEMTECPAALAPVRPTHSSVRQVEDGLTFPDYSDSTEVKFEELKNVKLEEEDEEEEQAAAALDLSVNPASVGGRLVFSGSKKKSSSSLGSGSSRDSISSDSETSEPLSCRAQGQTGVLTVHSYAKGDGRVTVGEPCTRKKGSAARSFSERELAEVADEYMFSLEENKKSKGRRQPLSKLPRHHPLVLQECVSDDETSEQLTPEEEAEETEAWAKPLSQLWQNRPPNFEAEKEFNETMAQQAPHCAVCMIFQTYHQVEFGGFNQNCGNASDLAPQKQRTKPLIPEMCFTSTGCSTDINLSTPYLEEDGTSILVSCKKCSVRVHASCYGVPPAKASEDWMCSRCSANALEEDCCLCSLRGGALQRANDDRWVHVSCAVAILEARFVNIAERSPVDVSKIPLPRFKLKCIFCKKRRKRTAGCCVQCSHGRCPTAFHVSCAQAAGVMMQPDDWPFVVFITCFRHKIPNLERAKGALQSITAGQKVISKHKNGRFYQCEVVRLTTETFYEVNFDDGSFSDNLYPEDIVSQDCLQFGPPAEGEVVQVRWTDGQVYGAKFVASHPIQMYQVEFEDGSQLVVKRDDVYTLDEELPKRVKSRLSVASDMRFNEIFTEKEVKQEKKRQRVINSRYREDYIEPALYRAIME

SMILES | activity change, negative = inhibition | Potency
Cc1nc(-c2cccc(NC(=O)COc3ccc(Cl)cc3)c2)cs1 | inactive: -0% | –
Cc1nnc(-c2cccc(Br)c2)c2cn(-c3cccc(Br)c3)nc12 | – | inconclusive: 89.1 µM [inhibitor, single point]
COc1ccccc1OCCn1cc(/C=N/NC(N)=S)c2ccccc21 | – | inconclusive: 50.1 µM [inhibitor, partial curve]
O=C(NC1=NCCS1)c1ccncc1 | – | inconclusive: 79.4 µM [inhibitor, single point]
N/N=C1\CCCc2c1[nH]c1ccc([N+](=O)[O-])cc21 | – | inconclusive: 56.2 µM [inhibitor, partial curve, poor fit]
O=S(=O)(Nc1ncccn1)c1ccc(Nc2ncnc3ccccc23)cc1 | – | inconclusive: 89.1 µM [inhibitor, single point]
O=C(O)/C(=C\c1ccc(Cl)c([N+](=O)[O-])c1)c1ccc(S(=O)(=O)N2CCCC2)s1 | – | inconclusive: 44.7 µM [inhibitor, partial curve]
CCn1cc(Cl)c(C(=O)Nc2cccc(CN3CCOCC3)c2)n1 | inactive: -5.45% | –
CNC(=O)CSc1nnc(-c2ccccc2F)n1CCc1ccccc1 | inactive: -10.2% | –
CS(=O)(=O)c1ccc2nc(NC(=O)CN3CCC(Cc4ccccc4)CC3)sc2c1 | – | inconclusive: 79.4 µM [inhibitor, partial curve]
CC(C)Oc1ccc(C(=O)Nc2nnc(C3=COCCO3)o2)cc1 | – | inconclusive: 17.8 µM [inhibitor, single point]
COc1ccccc1C(=O)OCC(=O)c1ccc(CNC(C)=O)s1 | inactive: -9.46% | –
O=C(O)c1ccc(N2C(=O)c3cccc4c(C(=O)O)ccc(c34)C2=O)cc1 | – | active: 44.7 µM
Cc1ccccc1Cc1c(C)nc2c(C(=O)N3CCN(Cc4ccc5c(c4)OCO5)CC3)cnn2c1C | – | inconclusive: 79.4 µM [inhibitor, partial curve]
O=C1C2CC=CCC2C(=O)N1c1n[nH]c(Cc2ccccc2)n1 (centres undefined) | – | inconclusive: 50.1 µM [inhibitor, partial curve]
Cc1ccc(C)c(S(=O)(=O)n2nc(C)c(S(=O)(=O)N3CCC(C)CC3)c2C)c1 | – | inconclusive: 70.8 µM [inhibitor, single point]
C=CCn1c(Cc2cccs2)nnc1SCC(=O)c1ccc(F)cc1 | – | active: 56.2 µM
C[N+]1(CC#CC(O)(c2ccccc2)c2ccccc2)CCCC1 | – | inconclusive: 56.2 µM [inhibitor, single point]
CN(C)c1ccc(CN(Cc2ccco2)C(=O)c2ccc(F)cc2)cc1 | – | active: 44.7 µM
Cc1csc(CNc2ncnc3ccc(-c4ccc5c(c4)OCCO5)cc23)c1 | – | inconclusive: 50.1 µM [inhibitor, partial curve]
CC(/C=C/c1ccccc1)=N\NC(=S)NC(C)C | – | active: 44.7 µM
CCCOC(=O)c1c(NC(=O)C2CCCO2)sc(C(=O)OC)c1C (centres undefined) | – | inconclusive: 89.1 µM [inhibitor, single point]

SMILES | activity change, negative = inhibition | Potency
O=C(c1ccc([N+](=O)[O-])cc1)N(Cc1ccccc1)Cc1ccccc1 | – | inconclusive: 100 µM [inhibitor, partial curve, poor fit]
CN(C)CCSc1nnc(-c2ccccc2)o1 | inactive: -0.787% [at 57.1 µM] | –
COc1ccc(OCc2nc(C#N)c(NCc3ccccc3Cl)o2)cc1 | – | inconclusive: 56.2 µM [inhibitor, partial curve]
Cc1cc(C)c(-c2csc(Cc3nc(-c4cc5ccccc5oc4=O)cs3)n2)cc1C | – | inconclusive: 28.2 µM [inhibitor, single point]
Cc1ccccc1N(CC(=O)N/N=C/c1cc(C)n(-c2ccccc2C)c1C)S(C)(=O)=O | – | inconclusive: 44.7 µM [inhibitor, partial curve]
CCCN(CC(=O)Nc1ccc(C(N)=O)cc1)CC(=O)Nc1ccc(Cl)cc1Cl | inactive: 2.05% | –
Cc1ccccc1/C=N/n1c(-c2cc(-c3ccccc3)n[nH]2)n[nH]c1=S | – | inconclusive: 39.8 µM [inhibitor, partial curve]
COc1ccc(-n2c(C)c(C)c3c(NCCN(C)C)ncnc32)cc1 | – | inconclusive: 56.2 µM [inhibitor, partial curve]
CCC(CC)NCc1ccc2c(c1)c1ccccc1n2CC | – | active: 20 µM
COc1ccc(/C(O)=C2/C(=O)C(=O)N(c3ncccn3)C2c2ccc(OC)c(OC)c2)cc1 (centres undefined) | – | inconclusive: 89.1 µM [inhibitor, single point]
O=c1oc2ccccc2c(O)c1Sc1c(O)c2ccccc2oc1=O | – | inconclusive: 63.1 µM [inhibitor, partial curve, poor fit]
Cc1occc1C(=O)NC1CCCN(Cc2ccc(CC(C)C)cc2)C1 (centres undefined) | – | inconclusive: 39.8 µM [inhibitor, full curve, poor fit]
CCCSCCCNC(=O)CN1C(=O)CCn2nc(-c3cn(C)c4ccccc34)cc21 | – | inconclusive: 56.2 µM [inhibitor, partial curve, poor fit]
COc1ccc(OC)c(-n2c(-c3ccc(C)cc3)n[nH]c2=S)c1 | – | inconclusive: 10 µM [inhibitor, partial curve]
CCC(C)NC(=O)CCC(=O)NNc1nc2ccccc2c2nc(C)nn12 (centres undefined) | – | inconclusive: 100 µM [inhibitor, single point]
Cc1ccc(NC(=O)CSc2nccn2Cc2ccc3c(c2)OCO3)c(C)c1 | – | inconclusive: 39.8 µM [inhibitor, partial curve]
Cc1ccc(C(=O)/C=C/c2cn(CC(O)CN3CCCCCC3)c3ccccc23)cc1 (centres undefined) | – | active: 50.1 µM
COC(=O)c1c(NC(=O)CC2SC(N)=NC2=O)sc2c1CCC(C(C)(C)C)C2 (centres undefined) | – | inconclusive: 50.1 µM [inhibitor, partial curve]
CCc1ccc(S(=O)(=O)n2ccnc2)cc1 | inactive: -16.2% | –
CCCCCCCNC1=CC(=O)CC(c2ccco2)C1 (centres undefined) | – | active: 50.1 µM
COc1cc(OC)cc(C(=O)OCC(=O)Nc2nnc(-c3ccccc3)o2)c1 | – | active: 50.1 µM
O=C(Nc1nccs1)c1cn(-c2ccccc2)nc1-c1ccncc1 | – | inconclusive: 56.2 µM [inhibitor, partial curve]
